The text below walks through data of article PMC4336329 (PLoS ONE, 2015).

Out of some 310,000 compounds screened, about 14,000 (4.5%) showed an effect of 50% or more. The effect is printed as a negative number. The list shows a part of the results.
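Note: peak tail current of the secondary pulse compared with the same well before compound.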

This test deals with human ether-à-go-go-related gene (hERG) potassium channel (human, UniProt Q12809). Kind of test: primary screen, population patch clamp on CHO cells stably expressing hERG.
human ether-à-go-go-related gene (hERG) potassium channel, sequence (Q12809 whole entry, looked up): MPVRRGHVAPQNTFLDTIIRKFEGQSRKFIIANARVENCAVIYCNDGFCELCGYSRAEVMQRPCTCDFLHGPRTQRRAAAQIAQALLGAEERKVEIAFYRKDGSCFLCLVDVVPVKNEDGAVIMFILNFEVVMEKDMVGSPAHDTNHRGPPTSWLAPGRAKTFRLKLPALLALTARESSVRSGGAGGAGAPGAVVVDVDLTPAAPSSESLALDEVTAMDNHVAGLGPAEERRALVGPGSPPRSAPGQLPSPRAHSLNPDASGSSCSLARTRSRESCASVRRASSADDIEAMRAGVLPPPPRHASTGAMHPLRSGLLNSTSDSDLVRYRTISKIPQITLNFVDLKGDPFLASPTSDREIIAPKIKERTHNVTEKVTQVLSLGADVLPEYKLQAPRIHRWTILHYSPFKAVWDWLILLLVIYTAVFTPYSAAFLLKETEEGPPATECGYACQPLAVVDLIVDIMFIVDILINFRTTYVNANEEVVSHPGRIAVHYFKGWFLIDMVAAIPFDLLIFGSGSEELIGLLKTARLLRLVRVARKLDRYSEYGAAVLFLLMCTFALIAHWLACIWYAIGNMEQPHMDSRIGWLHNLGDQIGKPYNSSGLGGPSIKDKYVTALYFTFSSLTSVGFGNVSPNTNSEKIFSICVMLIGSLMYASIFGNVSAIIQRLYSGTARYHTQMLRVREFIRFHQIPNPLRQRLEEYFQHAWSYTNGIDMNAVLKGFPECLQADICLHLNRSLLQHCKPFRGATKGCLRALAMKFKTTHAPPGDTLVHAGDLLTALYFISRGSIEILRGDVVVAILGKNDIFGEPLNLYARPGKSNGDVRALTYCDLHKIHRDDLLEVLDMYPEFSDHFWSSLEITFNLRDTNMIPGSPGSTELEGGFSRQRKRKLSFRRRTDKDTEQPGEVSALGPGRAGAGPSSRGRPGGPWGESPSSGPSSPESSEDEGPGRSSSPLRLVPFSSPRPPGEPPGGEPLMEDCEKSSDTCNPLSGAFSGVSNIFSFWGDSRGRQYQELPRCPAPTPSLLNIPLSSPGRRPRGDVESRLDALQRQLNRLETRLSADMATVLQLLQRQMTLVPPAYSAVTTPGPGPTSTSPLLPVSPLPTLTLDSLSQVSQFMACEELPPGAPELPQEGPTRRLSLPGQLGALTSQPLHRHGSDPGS
Consider `S=c1[nH]nc(C2CCCCC2)n1/N=C/c1ccncc1`, for which the “hERG current change (%, negative = inhibition) at 10uM” value is reported as 4.39%.
With `CC(=O)NNc1ncnc2c1cnn2-c1ccc(C)c(C)c1` the figure was 49.1%; with `CCN(C(=O)c1cnc(NC(C)C)cc1C(F)(F)F)c1ccc(Cl)cc1Cl`, 1.45%; with `CCc1nccn1CCC(=O)N1CCCC(N2CCN(c3cccc(Cl)c3)CC2)C1` (stereo not shown), -36.1%.
With `COc1ccc(NC(=O)CSc2nc3c(c(=O)n2-c2ccc(C)cc2)SCC3)c(OC)c1` the figure was -1.29%; with `CCOc1ccccc1Cn1c(=O)sc2ccccc21`, 7.43%.
With `COC(=O)Cc1ccc(NC(=O)c2ccc(C)c(C)c2)cc1` the figure was -4.91%; with `CCCc1nc2ccccc2[nH]1`, 24.6%; with `O=c1c2ccccc2nc(/C=C/c2cccc([N+](=O)[O-])c2)n1CCO`, -17.5%.
As for `O=C(NCc1ccccc1)c1ccc(NC2=NC3CS(=O)(=O)CC3S2)cc1` (stereo not shown), the “hERG current change (%, negative = inhibition) at 10uM” value stood at 3.34%.
For the compound `COc1cccc(CNc2nccs2)c1O`, the “hERG current change (%, negative = inhibition) at 10uM” value is 16.9%.
As for `Cc1cc(C)nc(N2CCC(C(=O)NNC(=O)c3ccccc3)CC2)n1`, the figure is 14.8%; as for `CC(C)c1ccc(C2(C)NC(=O)N(CC(=O)N3CCN(C(=O)c4cccs4)CC3)C2=O)cc1` (stereo not shown), -20.8%; as for `COc1ccccc1N1CCN(Cc2c(F)cccc2F)CC1`, -18%.
As for `CC1Sc2ccc(S(=O)(=O)CCC(=O)NCc3ccccc3Cl)cc2NC1=O` (stereo not shown), the figure is 0.444%; as for `CSc1nn(-c2ccc(C(=O)OC(C(=O)NC(N)=O)C(C)C)cc2)c(=S)s1` (stereo not shown), 25.6%; as for `Cc1ccccc1C(=O)Nc1ccccc1C(=O)NC1CC1`, 6.72%.
As for `O=C(CSc1nnc(COc2cccc3cccnc23)o1)N1CCN(C(=O)c2ccco2)CC1`, the figure is 0.452%; as for `CCN(C(=O)CN(C)Cc1c(F)cccc1Cl)c1c(N)n(Cc2ccccc2)c(=O)[nH]c1=O`, 10.1%.
As to `O=C(COC(=O)CCCN1C(=O)c2cccc3cccc(c23)C1=O)Nc1cccc(Br)c1`, the “hERG current change (%, negative = inhibition) at 10uM” value came to 6.6%.
As for `COc1ccc(OC)c(CCNC(=O)c2ccccc2NC(=O)C2=C(C)OCCS2)c1`, the figure is -6.28%; as for `CCOP(=O)(OCC)C(Nc1ccccc1)c1cc(OC)ccc1OC` (stereo not shown), -20.5%; as for `COc1ccc(NC2CCCN(C(=O)CCN3CCCO3)C2)cc1` (stereo not shown), 3.62%.
Turning to `C/C(=N\NC(=S)NC(C)C)c1ccc(Cl)s1`, the “hERG current change (%, negative = inhibition) at 10uM” value turned out to be 1.02%.
In the case of `CC(OC(=O)CNC(=O)c1sc2ccccc2c1Cl)c1ccccc1` (stereo not shown), the “hERG current change (%, negative = inhibition) at 10uM” value is recorded as 8.16%.
As to `Cn1c(NCc2ccccc2)nc2c1c(=O)n(Cc1ccccc1)c(=O)n2C`, the “hERG current change (%, negative = inhibition) at 10uM” value was -4.32%.
`COc1ccccc1N1CCN(Cc2nc(-c3ccc(F)cc3)oc2C)CC1`: the “hERG current change (%, negative = inhibition) at 10uM” value was -65.9%.
`CCOCc1cnc(C)nc1NCC(=O)c1c(C)[nH]c2ccc(OC)cc12.I`: the “hERG current change (%, negative = inhibition) at 10uM” value turned out to be 2.7%.
With `CCOC(=O)c1c(NC(=O)c2cnn3c2NC(c2cccc(OC)c2)CC3C(F)(F)F)sc2c1CCCC2` (stereo not shown) the figure was 0.45%; with `CCOC(=O)N1CCN(Cc2nc3ccc([N+](=O)[O-])cc3c(=O)n2-c2ccccc2F)CC1`, -69.9%; with `CCOc1ccc(Nc2nc(N)c([N+](=O)[O-])c(N3CCOCC3)n2)cc1`, 7.74%.
With `Cc1ccc(NC(=O)CN2CCC(NC(=O)c3ccccc3F)CC2)cc1C.Cl` the figure was -18%; with `CC(=O)NCCNC(=O)C1CCC(CNc2nc(=S)[nH]c3ccccc23)CC1` (stereo not shown), 6.59%.
As for `Cn1c(SCC(=O)NC2CC2)nnc1-c1ccccn1`, the figure is 10.2%; as for `COc1ccc(/C=C2\SC(=O)N(CC(=O)NCCCn3ccnc3)C2=O)cc1`, -44.5%; as for `O=C(NC1CCCCC1)C(c1ccc2ncccc2c1)N(Cc1ccc(F)cc1)C(=O)c1cccs1` (stereo not shown), -22%.
As for `O=C(COC(=O)c1ccc2ccccc2n1)Nc1cccc(S(=O)(=O)NC2=NCCCCC2)c1`, the “hERG current change (%, negative = inhibition) at 10uM” value is listed as -4.1%.
As for `CCOc1ccc(N(CC(=O)N/N=C/c2cc(Br)c(C)o2)S(C)(=O)=O)cc1`, the figure is 4.71%; as for `Cc1cccc(Nc2cc(=O)n(C)c(=O)[nH]2)c1`, 17.9%; as for `CCC(=O)N1CCc2cc(S(=O)(=O)CCC(=O)NC3CCCCC3)ccc21`, 5.33%.
With `O=C(CS(=O)(=O)Cc1ccccc1)Nc1ccccn1` the figure was -3.96%; with `O=[N+]([O-])c1ccc(N2CCN(c3ccc([N+](=O)[O-])cc3CO)CC2)c(CO)c1`, -64.7%; with `O=c1oc2ccccc2c(N2CCCCC2)c1CN1CCCC1`, -54.4%.
